Out of some 310,000 compounds screened, about 2,200 (0.71%) showed an effect of 50% or more. The effect is printed as a negative number. This is one part of the list.
Biological target: human ether-à-go-go-related gene (hERG) potassium channel (human, UniProt Q12809)
Experiment: primary screen, population patch clamp on CHO cells stably expressing hERG

Chain of human ether-à-go-go-related gene (hERG) potassium channel (Q12809 whole entry, looked up): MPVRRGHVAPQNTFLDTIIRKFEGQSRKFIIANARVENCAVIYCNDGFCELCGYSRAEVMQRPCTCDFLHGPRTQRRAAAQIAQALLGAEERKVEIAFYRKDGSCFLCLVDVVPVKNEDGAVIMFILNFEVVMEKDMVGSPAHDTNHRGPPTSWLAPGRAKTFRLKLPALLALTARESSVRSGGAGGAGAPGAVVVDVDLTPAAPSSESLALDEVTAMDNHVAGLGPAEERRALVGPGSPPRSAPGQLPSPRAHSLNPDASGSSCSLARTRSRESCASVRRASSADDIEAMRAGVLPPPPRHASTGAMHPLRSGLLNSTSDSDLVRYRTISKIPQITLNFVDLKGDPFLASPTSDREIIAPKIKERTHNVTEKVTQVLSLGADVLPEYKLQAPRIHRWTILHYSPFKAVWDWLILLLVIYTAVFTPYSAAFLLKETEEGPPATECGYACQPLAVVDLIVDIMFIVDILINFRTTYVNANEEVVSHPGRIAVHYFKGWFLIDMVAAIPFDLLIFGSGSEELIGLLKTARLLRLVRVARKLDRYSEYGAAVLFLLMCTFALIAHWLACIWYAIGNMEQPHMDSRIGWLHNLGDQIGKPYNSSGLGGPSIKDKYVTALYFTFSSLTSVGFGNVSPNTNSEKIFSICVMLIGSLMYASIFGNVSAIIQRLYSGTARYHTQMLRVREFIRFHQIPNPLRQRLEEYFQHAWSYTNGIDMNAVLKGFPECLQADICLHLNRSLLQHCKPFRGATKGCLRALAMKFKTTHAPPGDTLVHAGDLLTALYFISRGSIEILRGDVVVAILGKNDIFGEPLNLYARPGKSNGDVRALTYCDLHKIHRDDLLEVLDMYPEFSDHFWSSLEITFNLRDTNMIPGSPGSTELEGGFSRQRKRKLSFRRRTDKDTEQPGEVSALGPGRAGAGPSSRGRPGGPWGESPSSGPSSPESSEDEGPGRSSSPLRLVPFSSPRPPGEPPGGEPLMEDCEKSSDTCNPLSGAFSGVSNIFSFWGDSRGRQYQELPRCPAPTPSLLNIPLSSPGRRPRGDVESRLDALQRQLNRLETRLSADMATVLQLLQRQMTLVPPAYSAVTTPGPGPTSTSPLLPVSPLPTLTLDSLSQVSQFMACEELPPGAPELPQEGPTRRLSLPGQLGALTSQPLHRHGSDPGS

Row | Compound | hERG current change (%, negative = inhibition) at 1uM
1 | O=C(Cn1nc(-c2ccc(N3CCOCC3)c([N+](=O)[O-])c2)c2ccccc2c1=O)N1CCCCC1 | -6.5%
2 | CCCCN(C(=O)CCSc1ccc(F)cc1)c1c(N)n(Cc2ccccc2)c(=O)[nH]c1=O | 7.09%
3 | C=CCN1C(=O)/C(=C\C(C)=C\c2ccccc2)SC1=S | 9.01%
4 | Cc1ccc(/C=C2/Sc3ccc(C(=O)N4CCN(c5ccccn5)CC4)cc3NC2=O)cc1 | 6.37%
5 | Cn1c(CSc2ncccn2)nnc1SCC(=O)N1CCCc2ccccc21 | 7.46%
6 | Cl.Fc1ccc(C(OCCN2CCN(CCCc3ccccc3)CC2)c2ccc(F)cc2)cc1 | -71.3%
7 | Cc1nnc(N/N=C/c2c(Cl)cccc2Cl)n1N.Cl | 10.8%
8 | CCc1cccc(CC)c1-n1c(SCc2cc(=O)n3ccsc3n2)nnc1-c1cccnc1 | -8.44%
9 | N#C/C(=C1/CCCN1)c1ccccn1 | -4.39%
10 | CCN(CC)C(=O)CSc1nc(-c2ccccc2)cc(=O)[nH]1 | 6.7%
11 | COc1ccc(NC(=O)COc2ccccc2C(=O)NCC(c2ccccc2)N(C)C)cc1Cl (stereo not shown) | 12.1%
12 | Cc1cc(C(=O)NN=C2CCCCC2)c2ccccc2n1 | 2.77%
13 | O=C(COC(=O)c1ccc(O)cc1)Nc1cc(C(F)(F)F)ccc1N1CCOCC1 | -7.14%
14 | O=C(NNS(=O)(=O)c1ccc(Cl)cc1)c1cc(-c2ccccc2)n[nH]1 | 11.1%
15 | COc1cccc(C2N=C(c3ccccc3C)NO2)c1OC (stereo not shown) | 9.22%
16 | Cc1ccc(CN2CCCOCCS2(=O)=O)cc1 | 15.7%
17 | CCOC(=O)c1ccc(NC(=O)c2nc[nH]c2C(=O)NCCCNC(=O)c2[nH]cnc2C(=O)Nc2ccc(C(=O)OCC)cc2)cc1 | 13.8%
18 | Cc1cc(CNC(=O)Nc2ccc3c(c2)OCO3)nn1C | 11.2%
19 | CCC(C)N=C1Sc2nc3ccc(C)cc3cc2CN1CCOC (stereo not shown) | -60.4%
20 | O=c1oc2ccccc2c(NCc2ccccc2)c1[N+](=O)[O-] | -9.23%
21 | CC(=O)Nc1ccc(N2C(=O)CCC2=O)cc1C | 11.1%
22 | O=C(Nc1nc2ccccc2n1Cc1ccccc1)c1ccc(COc2ccccc2[N+](=O)[O-])o1 | 1.01%

Row | Compound | hERG current change (%, negative = inhibition) at 1uM
23 | Cn1c(SCC(=O)N2c3ccccc3Sc3ccc(Cl)cc32)nnc1-c1ccco1 | -7.51%
24 | C/C(=N\NC(N)=O)c1c(O)n(C)c(=O)n(C)c1=O | 11.5%
25 | COCC(=O)Nc1ccc(Br)cc1C | 10.5%
26 | Cc1ccc(NC(=O)CN2C(=O)C(C)Oc3ccccc32)nc1 (stereo not shown) | 2.45%
27 | CCn1cnc2c1c(=O)[nH]c(=O)n2Cc1ccccc1 | 14.6%
28 | CCOC(=O)CNC(=O)Nc1ccccc1C(=O)OC | 14.5%
29 | COC(=O)C1=C(c2cc3ccccc3s2)C[C@@H]2CC[C@H]1N2C(=O)NCCO | 8.67%
30 | O=C(O)c1cccc(S(=O)(=O)N2Cc3ccccc3C2)c1 | 3.06%
31 | O=C(c1ccc(F)cc1)N1CCCN(c2nc(-c3ccccc3)ns2)CC1 | -0.372%
32 | C[C@H](NC(=O)c1ccco1)C(=O)Nc1ccc2c(c1)OCO2 | 9.98%
33 | COc1ccc(CCNC(=O)CCCCCNC(=O)N2CCn3c2nc2ccccc23)cc1OC | 3.74%
34 | CN1CCCC(OC(=O)CCCC(=O)OC2CCCN(C)C2)C1.Cl (stereo not shown) | -11.6%
35 | CCOC(=O)Nc1ccc2c(COC(=O)c3ccccc3O)cc(=O)oc2c1 | 7.73%
36 | Cc1ccccc1/C=C/C(=O)NCC(=O)N1CCC(N(C)C2CCCCC2C)CC1 (stereo not shown) | -36.1%
37 | Cc1cccn2c(=O)c3cc(C(=O)NCCN4CCOCC4)c(=N)n(Cc4cccnc4)c3nc12 | 9.95%
38 | CCc1ccc(NC(=O)c2ccc(NC3=NC4CS(=O)(=O)CC4S3)cc2)cc1 (stereo not shown) | 7.01%
39 | CCOC(=O)C1=C(C)NC(=O)NC1c1c(O)ccc2ccccc12 (stereo not shown) | 9.33%
40 | CS(=O)(=O)Nc1ccc(S(=O)(=O)NCCc2ccccc2)cc1 | -16.8%
41 | CCCn1ncc(CN2CCC(Oc3ccc(C(=O)N4CCCC4)cc3)CC2)c1C | 3.14%
42 | CCOC(=O)c1c(C)oc2c1c(C(c1cccnc1)N1CCCCC1)c(O)c1ccccc12 (stereo not shown) | 0.0286%
43 | Cc1ccc(NC(=O)c2cccs2)cc1NC(=O)c1cccc(F)c1 | 6.73%
44 | CCCCCC(=O)N1CCCC1 | 12.5%

Row | Compound | hERG current change (%, negative = inhibition) at 1uM
45 | Cc1nn(C)c(C)c1S(=O)(=O)N1CCCC(C(=O)NCCc2ccc(Cl)cc2)C1 (stereo not shown) | 6.79%
46 | COCCN(C(=O)CCN1C(=O)C2CC=CCC2C1=O)c1c(N)n(CC(C)C)c(=O)[nH]c1=O (stereo not shown) | 11.6%
47 | Nc1nc(SCC(=O)C23CC4CC(CC(C4)C2)C3)n[nH]1 | -1.55%
48 | NC1(C#Cc2ccc3oc(=O)c(-n4cc(-c5ccsc5)nn4)cc3c2)CCCCC1 | 2.7%
49 | CCO[C@H]1OC(C(=O)N2CCCCCCC2)=C[C@@H](c2ccc(C(F)(F)F)cc2)[C@@H]1CCCO | 6.5%
50 | COc1cc(-c2nc(-c3ccccc3)c(-c3ccc(F)cc3)[nH]2)cc2c1OCO2 | 10%
51 | O=S1(=O)CCC(NC(=S)N2CCCCC2)C1 (stereo not shown) | 6.33%
52 | O=C(COC(=O)C1C2CC3OC(=O)C1C3C2)Nc1cccc(C(F)(F)F)c1 (stereo not shown) | 1.06%
53 | O=C(COC(=O)c1ccco1)NCc1ccc(Cl)cc1 | 9.29%
54 | Nc1ccc(-c2nc3ccc(-c4nc5ccccc5o4)cc3[nH]2)cc1 | 13%
55 | N=c1c(S(=O)(=O)c2ccc(F)cc2)cc2c(=O)n3ccccc3nc2n1CC1CCCO1 (stereo not shown) | -2.33%
56 | Cc1ccc(C(=O)NC(NC(=S)Nc2ccc(S(N)(=O)=O)cc2)C(Cl)(Cl)Cl)cc1 (stereo not shown) | 0.919%
57 | Cc1cccc(-n2nnnc2SCC(=O)c2cc(C)n(Cc3ccco3)c2C)c1 | -5.03%
58 | COc1ccc(C)c2sc(N(CCN(C)C)C(=O)/C=C/c3cccs3)nc12.Cl | 7.34%
59 | C=C(C)c1cccc(C(C)(C)NC(=O)N2CCN(CC)CC2)c1 | 5.16%
60 | Cc1ccnc2c1ccc1c(C)ccnc12.O | 8.07%
61 | COC(=O)C1=C(C)Nc2nc3ccccc3n2C1c1ccccc1F (stereo not shown) | 8.31%
62 | O=C(CCn1c(=O)oc2ccccc21)n1c(=O)oc2ccccc21 | 15.9%
63 | C=CCn1cc(C(=O)OC)c(=O)c2cc(S(=O)(=O)N(CC)CC)ccc21 | 10.1%
64 | Cc1ccc(O)c(C(=O)CC(=O)c2ccccc2Cl)c1 | 16%
65 | O=C(COCc1cc(-c2ccc3c(c2)OCO3)on1)N1CCCCC1 | 7.6%
66 | Cc1ccc(N(CC(=O)NC(C)(C)C)C(=O)CNC(=O)c2cccs2)c(C)c1 | 10.7%

Row | Compound | hERG current change (%, negative = inhibition) at 1uM
67 | CCOc1cccc(-c2nc3cc(C)ccc3o2)c1 | 18.5%
68 | CC(=O)Nc1cccc(NC(=O)c2c(-c3c(Cl)cccc3Cl)noc2C)c1 | 3.61%
69 | CC(NC(=O)c1ccccc1O)c1ccccc1 (stereo not shown) | 11.2%
70 | COc1ccc(/C=N/NC(=O)CNC(=O)c2ccc(S(=O)(=O)N3CCOCC3)cc2)cc1OC | 5.4%
71 | CCOc1ccc(C2c3cc(OC)c(OC)cc3CC(=O)N2c2ccccc2)cc1 (stereo not shown) | -9.55%
72 | Cc1ccn2c(NC3CCCCC3)c(C)nc2c1 | 5.08%
73 | Nc1nonc1C(=O)NCCNS(=O)(=O)c1ccc(Br)cc1 | -3.34%
74 | CCCCCN(C(=O)CCC(=O)OCc1ccccc1F)c1c(N)n(CCCC)c(=O)[nH]c1=O | 13.6%
75 | O=C(COc1ccc([N+](=O)[O-])cc1)NNC(=O)c1cccs1 | 8.47%
76 | O=C(Nc1nc2ccc([N+](=O)[O-])cc2s1)c1ccco1 | 23.7%
77 | CN(c1ccc(C(=O)Nc2ccc(Cl)cn2)cc1)S(=O)(=O)c1ccccc1 | -0.904%
78 | Cc1ccccc1/C=C1\OC(=O)c2ccccc21 | 4.12%
79 | CCn1cnc2cc(NCc3cccs3)ccc21 | 9.39%
80 | N/C(=N\OC(=O)Cc1cccs1)c1ccc(Cl)cc1 | 11.1%
81 | CCCc1nnc(NC(=O)CCC(=O)N2CCN(Cc3ccc(OC)c(F)c3)CC2)s1 | 7.31%
82 | O=C(c1ccccc1)N1CCN(c2ncccn2)CC1 | 16.1%
83 | O=c1c(-c2cc3ccccc3o2)[n+]([O-])c2ccccc2n1OCc1ccccn1 | -3.66%
84 | COCCN(C(=O)COC(=O)c1cccnc1Cl)c1c(N)n(Cc2ccccc2)c(=O)[nH]c1=O | 16.8%
85 | O=C(Nc1ccccc1F)c1cnccn1 | 18.6%
86 | Cc1ccccc1/C=C/c1nc2ccccc2c(=O)n1Cc1ccccc1 | 2.74%
87 | CCCC(=O)Nc1ccc2c(c1)C(=O)NC2=O | 5.06%
88 | O=C(COC(=O)c1ccc[nH]c1=O)NCCc1ccc(Cl)cc1Cl | 9.68%

— PMC4336329 (PLoS ONE, 2015)
